Here are results for 42 molecules from ChEMBL document CHEMBL4888484, “Replenishing the malaria drug discovery pipeline: Screening and hit evaluation of the MMV Hit Generation Library 1 (HGL1) against asexual blood stage Plasmodium falciparum ,using a nano luciferase reporter read-out” (2022).

About 540 (0.36%) of roughly 150,000 compounds showed an effect of 50% or more. This is one part of the list.

The test has as its system Plasmodium falciparum. As to the kind of experiment: Primary screen in NF54 nanoGlo assay, in single point, at 2uM, 72h; a lower Z score goes with more inhibition. It counts as functional, Erythrocyte. Particulars: timepoint 72 hour.
For the molecule `CN(CCc1nc2ccccc2c(=O)[nH]1)CCc1nccs1`, the “% Inhibition” value is -8% and the Z score stood at 0.82.

As to `Cc1ccc(C[C@H](C)N(C)S(=O)(=O)N(C)C)cc1`, the “% Inhibition” value was -3% and the Z score is 0.4.

With `COc1ccc(CNC(=O)Cn2nc(C)cc2C(=O)N2CCOCC2)cc1`, the “% Inhibition” value is reported as 0% and the Z score is listed as -0.02.

In the case of `Cc1cccnc1NC(=O)C(F)(F)F`, the “% Inhibition” value was -13% and the Z score was determined as 1.74.

As to `COCC(=O)Nc1cc(C(=O)N(C)Cc2cnn(C)c2)c2c(c1)ncn2Cc1ccc(F)cc1`, the “% Inhibition” value was -5% and the Z score came out at 0.58.

Consider `CC(NC(=O)N1CCN(S(=O)(=O)c2ccc(Cl)cc2)CC1)C1CCCO1` (centres undefined), for which the “% Inhibition” value is recorded as -2% and the Z score is given as 0.32.

Consider `O=C(CN1C(=O)COc2ccc(Cl)cc21)NCc1cccnc1`, for which the “% Inhibition” value was -4% and the Z score is reported as 0.71.

For `O=C(NCCCc1ccccc1)N(Cc1ccco1)C1CCOCC1`, the “% Inhibition” value is -6% and the Z score was found to be 0.99.

`COc1ncccc1C(=O)N[C@H]1CCC(C)(C)c2ccccc21`: the “% Inhibition” value is reported as 6% and the Z score is -1.13.

As to `CCn1nc(C)cc1C(=O)Nc1cnccc1C(N)=O`, the “% Inhibition” value worked out at 27% and the Z score is reported as -3.06.

Take `CN(Cc1cc(-c2ccccn2)no1)C(=O)c1cccc([C@H]2CCCNC2)c1`: the “% Inhibition” value is given as 0% and the Z score is given as 0.09.

Take `O=S(=O)(NC[C@@]1(COc2ccccc2)C[C@@H](O)[C@@H](O)C1)c1ccc(Cl)cc1`: the “% Inhibition” value is on record as -7% and the Z score came out at 1.09.

As for `COCc1c(C(=O)N2CCN(c3ccccn3)CC2)c(=O)cc(C)n1Cc1cccc2ccccc12`, the “% Inhibition” value is -2% and the Z score is listed as 0.27.

Turning to `O=C1c2ccccc2N[C@]2(C(=O)N(Cc3ccccc3F)c3ccccc32)N1c1ccccc1`, the “% Inhibition” value is listed as -14% and the Z score is 1.52.

For `COc1cc(NS(=O)(=O)c2cnnn2C)cc(OC)c1`, the “% Inhibition” value turned out to be 32% and the Z score was -3.61.

For `Cn1ncnc1[C@@H]1COCCN1C(=O)c1ccccc1OC1CC1`, the “% Inhibition” value is on record as -9% and the Z score is reported as 1.53.

Turning to `CC(C)(NC(=O)[C@@H]1Cc2ccccc2O1)c1cn(-c2ccccc2)nn1`, the “% Inhibition” value is -4% and the Z score is recorded as 0.39.

In the case of `CC(=O)N1CCCN(C(=O)C[C@H](C)C2CCCCC2)CC1`, the “% Inhibition” value is 3% and the Z score was -0.49.

For the molecule `O=C(NCCc1ccns1)c1ccccc1C1CCC1`, the “% Inhibition” value is 21% and the Z score was -3.32.

Consider `Cc1c(C(=O)N(C)Cc2ccoc2)cnn1[C@H]1CCS(=O)(=O)C1`, for which the “% Inhibition” value is -7% and the Z score came to 0.85.

With `CCCCn1ncc(NCc2nc(C)cs2)c1C`, the “% Inhibition” value is recorded as -9% and the Z score is on record as 0.92.

In the case of `COc1ccc(NC(C)(C)C(=O)NC[C@H]2CCN(c3ccccc3C)C2)cc1`, the “% Inhibition” value was 3% and the Z score is listed as -0.64.

Regarding `CCn1cc(C(=O)Nc2ccnc(C)c2Cl)cn1`, the “% Inhibition” value amounted to 5% and the Z score was -0.72.

Consider `O=C(c1ccc2ccccc2n1)N1CCN(Cc2nc(-c3ccsc3)no2)CC1`, for which the “% Inhibition” value is -3% and the Z score was determined as 0.43.

In the case of `CC(NC(=O)N1CC(C)C(N2CCOCC2)C1)c1c(F)cncc1F` (centres undefined), the “% Inhibition” value is -17% and the Z score amounted to 1.9.

Consider `CCOc1ccc(N2CC(C)N(CCOC)C(C)C2)nn1` (centres undefined), for which the “% Inhibition” value is recorded as -12% and the Z score is 1.84.

Consider `CC(C)CC1C(=O)NCCCN1C(=O)CC1CCCS(=O)(=O)C1` (centres undefined), for which the “% Inhibition” value was -5% and the Z score was 0.78.

In the case of `c1ccc(-c2nc[nH]c2-c2ccc([C@@H]3CCCCO3)o2)cc1`, the “% Inhibition” value is recorded as -9% and the Z score worked out at 1.52.

Regarding `CCn1cc(N[C@@H](C)C2=Cc3ccccc3OC2)cn1`, the “% Inhibition” value is listed as -5% and the Z score is 0.79.

Take `CN(C[C@H](O)Cn1cccn1)C1Cc2ccccc2C1`: the “% Inhibition” value is on record as -5% and the Z score came to 0.74.

On to `OCCNc1nc2ccccc2n1Cc1cc2c(cc1Br)OCCO2`, for which the “% Inhibition” value is recorded as -3% and the Z score amounted to 0.28.

With `O=C(Nc1ccc2oc(-c3cccnc3)nc2c1)c1ccc2ccccc2c1`, the “% Inhibition” value was determined as 2% and the Z score is -0.21.

In the case of `CCC1Cc2ccccc2CN1C(=O)C1CC1C(=O)O` (centres undefined), the “% Inhibition” value is reported as -7% and the Z score came to 0.84.

For the molecule `O=C(NC1CC1)[C@@H]1CCCN1c1cc(NCC2CC2)ncn1`, the “% Inhibition” value is -10% and the Z score is 0.99.

`CN1CCC[C@H](CCc2ncnn2CC(F)(F)F)C1`: the “% Inhibition” value is recorded as -11% and the Z score was 1.96.

In the case of `CC=Cc1ccc(OS(=O)(=O)c2ccc3c(c2)CCC(=O)N3)c(OC)c1`, the “% Inhibition” value is on record as -4% and the Z score is on record as 0.37.

Regarding `CCOCC(=O)N(CC(F)F)c1ccc(F)cc1`, the “% Inhibition” value was -5% and the Z score is reported as 0.88.

As for `O=C1NCCCn2cc(S(=O)(=O)N3CCN(c4ccccc4)CC3)cc21`, the “% Inhibition” value is recorded as 9% and the Z score is recorded as -1.02.

Take `COc1nccn2c(CNC(=O)c3ccc(F)c(Cl)c3)nnc12`: the “% Inhibition” value is given as -16% and the Z score was determined as 3.12.

Take `Cc1noc([C@H](C)ON=C(N)Cc2ccccc2)n1`: the “% Inhibition” value is listed as -7% and the Z score worked out at 0.87.

Regarding `COCc1ccc(C(=O)NCCN(C)S(C)(=O)=O)s1`, the “% Inhibition” value was -2% and the Z score came to 0.28.

Turning to `Cn1cccc1C(=O)N1CC(Nc2ccc(F)cc2)C1`, the “% Inhibition” value is recorded as -13% and the Z score was determined as 1.72.

As a reminder, the % Inhibition is the relative decrease from the control value, in per cent.
